Test results reported in the supplement of paper PMC12217912.
Some of the results follow. Sequences were assembled here from the parent chain. Values near 0.05 are background.

B1: TEV protease; numbered along this chain (parent)
chain: MGESLFKGPRDYNPISSSICHLTNESDGHTTSLYGIGFGPFIITNKHLFRRNNGTLVVQSLHGVFKVKDTTTLQQHLVDGRDMIIIRMPKDFPPFPQKLKFREPQREERICLVTTNFQTKSMSSMVSDTSCTFPSGDGIFWKHWIQTKDGQCGSPLVSTRDGFIVGIHSASNFTNTNNYFTSVPKNFMELLTNQEAQQWVSGWRLNADSVLWGGHKVFMVKPEEPFQPVKEATQL

Variants of: B1
Test: raw area under fraction-flipped curve 0-4 h after induction (AUC4h, not background-subtracted), DNA-recorder readout of cleavage of the substrate (dimensionless); higher = more cleavage of the substrate by the protease variant
Conditions: temperature: 34 °C; time window: 0-4 h after rhamnose induction
Experimental: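 In vivo DNA recorder in E. coli TOP10(DE3) ΔrhaA at 34 °C. Each TEVp single-site mutant (parent TEVp 0) is paired with a single-site variant of the 7-mer TEVs (canonical ENLYFQ|S). The substrate sits between flexible linkers in a Bxb1-sfGFP-TEVs-SsrA fusion, so cleavage stabilises Bxb1 and speeds flipping of a recombination array, read by NGS. The value is the raw area under the fraction-flipped curve over 0-4 h after rhamnose induction (AUC4h), with ≥20 reads per time point. It is not background-subtracted; inactive controls average about 0.047.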
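Note: Bxb1 expression induced with 0.2% (w/v) L-rhamnose at OD600 near 0.5, cultures sampled hourly, flipped fraction per protease–substrate barcode pair counted by paired-end Illumina sequencing.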

Row | Variant | area with substrate ENLYFAS | area with substrate ENLYFDS | area with substrate ENLYFES | area with substrate ENLYFFS | area with substrate ENLYFHS | area with substrate ENLYFIS | area with substrate ENLYFKS | area with substrate ENLYFMS | area with substrate ENLYFNS | area with substrate ENLYFPS | area with substrate ENLYFRS | area with substrate ENLYFWS | area with substrate ENLYFGS | area with substrate ENLYFTS | area with substrate ENLYFCS | area with substrate ENLYFLS | area with substrate ENLYFSS | area with substrate ENLYFVS | area with substrate ENLYFYS
1 | T181F | 0.0602 | 0.0552 | 0.0459 | 0.0287 | 0.0487 | 0.058 | 0.0592 | 0.0605 | 0.0575 | 0.0486 | 0.0557 | 0.0555 |  |  |  |  |  |  | 
2 | N177I | 0.065 | 0.0607 | 0.0715 | 0.0698 | 0.0604 | 0.0518 |  | 0.0675 | 0.0673 | 0.052 | 0.0861 |  | 0.0712 | 0.0493 |  |  |  |  | 
3 | N177P | 0.0568 | 0.0754 | 0.0597 | 0.0486 | 0.0441 | 0.0628 | 0.0584 | 0.065 | 0.0503 | 0.0624 |  |  |  | 0.0593 | 0.0573 | 0.0697 | 0.0669 | 0.0547 | 0.0616
4 | N177C | 0.0342 |  | 0.08 | 0.0685 | 0.0758 | 0.0593 | 0.0726 | 0.0719 |  |  |  | 0.0622 |  | 0.0402 | 0.0501 | 0.0582 | 0.026 | 0.0518 | 
5 | Y179A | 0.0579 |  |  | 0.0606 | 0.0551 | 0.0413 | 0.0706 | 0.0599 |  | 0.0666 |  |  |  | 0.0552 |  |  | 0.0805 |  | 
6 | S158N | 0.0573 |  | 0.0157 | 0.061 |  | 0.0485 |  |  | 0.0498 | 0.0513 |  | 0.0553 |  | 0.0552 | 0.0488 |  |  | 0.0618 | 
7 | I167R | 0.0402 | 0.0641 | 0.0546 | 0.0725 |  | 0.0597 | 0.0594 | 0.0497 | 0.0488 | 0.0589 |  | 0.0263 | 0.0646 | 0.0455 |  |  |  |  | 0.047
8 | I167V | 0.06 | 0.059 | 0.0636 | 0.0687 | 0.0417 | 0.057 |  |  | 0.0587 | 0.0568 | 0.0612 |  |  | 0.0567 | 0.0746 |  | 0.0682 | 0.0537 | 
9 | Q151T | 0.0671 | 0.0576 | 0.0634 | 0.0594 | 0.0651 | 0.0454 | 0.0614 |  | 0.0612 | 0.0586 | 0.0666 | 0.0526 | 0.0736 | 0.0615 | 0.0539 | 0.0457 | 0.0364 |  | 0.0733
10 | S171H | 0.054 | 0.0619 | 0.0587 | 0.0688 | 0.0582 | 0.0609 | 0.0498 | 0.0589 | 0.0623 | 0.0577 | 0.0675 | 0.0536 |  |  | 0.0501 | 0.0621 | 0.0714 | 0.0758 | 0.0569
11 | S171C | 0.0629 |  | 0.0627 | 0.0681 |  | 0.0546 | 0.0455 | 0.0759 | 0.0657 | 0.0523 | 0.0559 | 0.0492 |  | 0.0237 |  | 0.079 | 0.0616 | 0.0182 | 
12 | V157W | 0.0538 | 0.0611 | 0.0621 | 0.0435 | 0.0567 | 0.0511 |  |  | 0.0586 | 0.053 |  | 0.062 |  | 0.0675 |  |  | 0.0647 | 0.0703 | 0.0425
13 | V157E | 0.0562 | 0.0485 | 0.0465 | 0.0556 | 0.063 | 0.0594 | 0.0584 |  | 0.0579 | 0.0547 | 0.0488 | 0.0615 | 0.0556 |  |  |  |  |  | 
